Experimental data taken from PubChem BioAssay AID485297 (National Center for Advancing Translational Sciences (NCATS), 2010).
Hit rate of the full screen: of about 320,000 compounds, about 9,100 (2.8%) were called active. Inconclusive results, whose numbers are uncertain, are shown with a selection of clear calls. Calls follow the shape of the dose curve; as a rule, active = well fitted activation curve with a large enough effect; inconclusive = small, poorly fitted or top-dose-only effect; inactive = no such curve, though single readings can be large or run the other way. Potencies beside an inconclusive call are fits to weak or partial responses and may not hold up.

experiment: qHTS Assay for Rab9 Promoter Activators; conditions: Huh7 Rab9 promoter-luciferase reporter, luminescence, 24 h; series mostly up to 9.22 µM; also: nearly all actives have a fitted effect of over 60% in size
Method in brief: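 Measured in stably transfected Huh7 cells bearing a Rab9 promoter–luciferase construct: 24 h compound treatment at 37 °C, followed by luminescence detection.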
Potency is read from the fitted curve at half-maximal effect; tags tell the direction and shape of the fitted curve.

Potency, inconclusive:
CN(C)C1=NCC(CSC(=N)N)S1 (stereo not given) 5.62 µM [activator, single point], O=C1NC(=S)S/C1=C/c1ccc(OC(=O)c2ccco2)cc1 0.794 µM [activator, partial curve, poor fit], COc1ccc(CCC(=O)Nc2ccc(-c3noc(-c4ccc(OC)c(OC)c4)n3)cc2)cc1 3.98 µM [activator, partial curve], CC(=O)c1cccc(NC(=S)NC(=O)CC(C)(C)C)c1 3.16 µM [activator, single point], Cc1ccc(C(=O)/C=C/c2ccccc2[N+](=O)[O-])cc1 3.55 µM [activator, partial curve], O/N=C/c1ccccc1OCc1ccc(Cl)cc1 3.55 µM [activator, partial curve], Clc1ccc(SCc2cn3cccnc3n2)cc1 2.82 µM [activator, partial curve], COc1ccc(/C(N)=N/OC(=O)c2ccc3c(c2)OCO3)cc1OC 5.62 µM [activator, single point], COc1ccc(NC(=O)COC(=O)c2c(F)cccc2Cl)cc1OC 5.01 µM [activator, single point], Cc1ccc(NC(=O)c2cc(=O)c3ccccc3o2)c(C)c1 1.78 µM [activator, partial curve], O=C(Nc1ccc(N2CCOCC2)c([N+](=O)[O-])c1)c1ccco1 3.55 µM [activator, partial curve], O=C(Nc1ccc2c(c1)oc1ccccc12)c1ccc(Br)o1 5.62 µM [activator, single point], C=CCNc1cnn(-c2ccccc2)c(=O)c1Cl 3.16 µM [activator, single point], Cc1ccc(C2Nc3ccccc3-c3nc4ccccc4n32)o1 (stereo not given) 2.82 µM [activator, partial curve], CC(C)n1nnnc1SCC(=O)Nc1ccc2c(c1)OCCO2 2.51 µM [activator, partial curve], COc1nc(NCCO)nc(Nc2ccccc2F)n1 2.24 µM [activator, partial curve], c1ccc(Sc2ncnc3c2oc2ccccc23)nc1 3.16 µM [activator, single point], CCCCSc1nnc(-c2ccc(OC)cc2)n1C 2.82 µM [activator, partial curve], COCCCn1c(SCC(=O)Nc2ccc(C(C)=O)cc2)nc2ccccc2c1=O 2.82 µM [activator, partial curve], O=C(N/N=C/c1ccccc1)c1ccc(NC(=O)c2ccc(F)cc2)cc1 2.82 µM [activator, partial curve], O=C(Nc1ccsc1C(=O)O)c1cccc(C(F)(F)F)c1 3.55 µM [activator, single point], O=C(Nc1ccc(NC(=O)c2cccs2)c(Cl)c1)c1cccs1 3.16 µM [activator, partial curve], CCCCc1ccc(NC(=O)Nc2cccnc2)cc1 3.55 µM [activator, partial curve], Cc1c(-c2nc(-c3ccc(C(F)(F)F)cc3)no2)n(C)oc1=O 0.316 µM [activator, full curve], Cc1cccc(NC(=S)Nc2ccccn2)c1 6.31 µM [activator, single point], O=C1CNC(=S)N1c1nc2ccccc2s1 2.24 µM [activator, partial curve], CNc1ncc(C(=O)c2ccc(Cl)c(Cl)c2)s1 3.55 µM [activator, partial curve], CN(C)C(=O)c1ccc(COc2ccccc2Br)o1 3.55 µM [activator, single point], CCn1c(SCC(=O)c2ccc3c(c2)OCCO3)nnc1C(C)C 2.82 µM [activator, partial curve], CCCCOC(=O)c1ccc(Nc2ncnc3nc[nH]c23)cc1 3.55 µM [activator, single point], C=CCNCCCCOc1ccc(OCc2ccccc2)cc1 3.55 µM [activator, single point], O=C(NNC1=NCCCCC1)Nc1ccc(Cl)cc1 3.16 µM [activator, single point], O=C(/C=N/NC(=O)c1ccc(Cl)cc1Cl)c1ccccc1 3.16 µM [activator, single point], COc1ccc(Nc2oc(-c3ccco3)nc2S(=O)(=O)c2ccc(F)cc2)cc1 0.891 µM [activator, single point], Cc1ccccc1NC(=O)Nc1ccccn1 3.16 µM [activator, single point], Cc1cc(C)c(C(=O)CN2C(=O)NC3(CCCCCC3)C2=O)cc1C 5.62 µM [activator, single point], Cc1ccccc1-c1nnc(SCc2ccccc2)o1 2.51 µM [activator, partial curve], COc1cccc(/C=C2\Oc3ccc(O)cc3C2=O)c1O 5.01 µM [activator, single point], Cc1c(C(=O)NCC2CCCO2)oc2ccccc12 (stereo not given) 2.51 µM [activator, partial curve], c1ccc(-c2ccc(OCCN3CCOCC3)cc2)cc1 2 µM [activator, partial curve]

Potency, inactive:
CC1C(=O)N2CCCc3cc(NC(=O)c4ccccc4Br)cc1c32 (stereo not given), O=C(N/N=C/c1cn(-c2cccs2)nc1-c1ccccc1)c1ccccc1O, COc1ccc(CCc2nc(-c3ccc(-n4cccc4)cc3)no2)cc1, O=S(=O)(NCCCCCCNS(=O)(=O)c1c(F)cccc1F)c1ccc2c(c1)OCCO2, COc1cccc(C2(C)NC(=O)N(CC(=O)c3cc(C)n(C4CC4)c3C)C2=O)c1 (stereo not given), CCc1ccccc1N1CC(C(=O)Nc2cc(S(=O)(=O)N3CCCC3)ccc2Cl)CC1=O (stereo not given), CCOc1ccc(NC(=O)CC2SC(=O)N(c3ccccc3)C2=O)cc1 (stereo not given), COc1ccccc1N1CCN(CCC(=O)Nc2ccc(F)cc2)CC1, CC(C)CC(=O)N1CCC(O)(CS(=O)(=O)c2ccc(Cl)c(Cl)c2)CC1, O=c1[nH]c(C2CCN(S(=O)(=O)c3ccc(S(=O)(=O)NC4CC4)cc3)CC2)nc2c1nnn2Cc1cccc(F)c1, COc1cc(/C=C2\SC(=S)N(NS(=O)(=O)c3ccc(C)cc3)C2=O)ccc1O, CC(C)Sc1ccc([N+](=O)[O-])cc1C(=O)Nc1ccncc1, COc1cccc(NC(=O)CN(C)C(=O)CNC(=O)c2sc3ccccc3c2Cl)c1, CCOC(=O)c1ccc(NC(=O)CC2Sc3ncnn3C2=O)cc1 (stereo not given), CCCCN(C)CCNC(=O)CCn1nc(-c2ccc(Cl)cc2)ccc1=O, CN(C)CCCN(C(=O)c1ccc(S(=O)(=O)N2CCCCCC2)cc1)c1nc2ccc(F)cc2s1, Nc1nccc(/C=C/c2c(Cl)cccc2Cl)n1, C(=N\N=C\c1cccnc1)/c1cccnc1, CC1(C)CC(N2CCN(Cc3ccccc3)CC2)=CC(=[N+]2CCCCC2)C1

Potency, active:
CC(C)(C)c1ccc(OCc2ccc(C(=O)NN)o2)cc1 0.794 µM, COc1ccc(O)c(C(=O)CC(=O)c2ccccc2C)c1 3.16 µM, O=C1c2ccccc2NC(c2cnc3ccccc3n2)N1O (stereo not given) 0.891 µM, O=c1cc(COc2ccc(Cl)c(Cl)c2)nc2sccn12 3.16 µM, O=C(c1cccs1)N(C(=O)c1cccs1)c1ccc(Br)cn1 1.58 µM, COc1ccc(C(=O)NC(=O)Nc2cc(C)ccn2)cc1 0.794 µM, Cc1cc(O)c(C(=O)Cc2csc(C)n2)c(O)c1 3.98 µM, CC(C)(C)n1ncc2c(=O)n(CC(=O)c3ccc(Cl)cc3)cnc21 3.16 µM, Brc1ccc2nc(-c3c[nH]c4ccccc34)cn2c1 1 µM, O=C(COC(=O)c1ccccc1Cc1ccccc1)Nc1ccc(SC(F)F)cc1 2.82 µM, Brc1ccc(-c2nnc(-c3ccccc3Br)o2)cc1 0.708 µM, C(=N\Nc1ccc2ccccc2n1)/c1ccc2c(c1)OCO2 0.1 µM, Clc1ccc(Cn2c(/C=C/c3ccco3)nc3ccccc32)cc1 3.55 µM, CC(/C=N/NC(=O)c1cccs1)=C\c1ccco1 1.41 µM, CCn1nnc2cc(C(=O)NCCc3ccccc3F)ccc21 0.398 µM, Cc1ccc2oc3nc(C)c(C(=O)O)cc3c(=O)c2c1 2.24 µM, CC(=O)c1ccc(OCc2cc(C(=O)N3CC4C[C@@H]5CC3C[C@H](C4)C5)no2)cc1 3.16 µM, COc1ccc(-n2ncc3c(N4CCC(C(N)=O)CC4)ncnc32)cc1 2.82 µM, CNC(=O)/C(C#N)=C/c1ccc(-c2nc3ccccc3s2)o1 1.41 µM, Cc1cccnc1NC(=O)Nc1ccc(Cl)cc1 3.98 µM, CC(C)CCNC(=O)c1ccc(-c2ccccc2)cc1 3.55 µM
